{"source": "paper PMC4336329", "about": "(PLoS ONE, 2015)", "note": "The whole screen tested about 310,000 compounds, of which about 2,200 (0.71%) showed an effect of 50% or more. The effect is printed as a negative number. The list shows a part of the results."}
{"target": "human ether-à-go-go-related gene (hERG) potassium channel (human, UniProt Q12809)", "sequence (Q12809 whole entry, looked up)": "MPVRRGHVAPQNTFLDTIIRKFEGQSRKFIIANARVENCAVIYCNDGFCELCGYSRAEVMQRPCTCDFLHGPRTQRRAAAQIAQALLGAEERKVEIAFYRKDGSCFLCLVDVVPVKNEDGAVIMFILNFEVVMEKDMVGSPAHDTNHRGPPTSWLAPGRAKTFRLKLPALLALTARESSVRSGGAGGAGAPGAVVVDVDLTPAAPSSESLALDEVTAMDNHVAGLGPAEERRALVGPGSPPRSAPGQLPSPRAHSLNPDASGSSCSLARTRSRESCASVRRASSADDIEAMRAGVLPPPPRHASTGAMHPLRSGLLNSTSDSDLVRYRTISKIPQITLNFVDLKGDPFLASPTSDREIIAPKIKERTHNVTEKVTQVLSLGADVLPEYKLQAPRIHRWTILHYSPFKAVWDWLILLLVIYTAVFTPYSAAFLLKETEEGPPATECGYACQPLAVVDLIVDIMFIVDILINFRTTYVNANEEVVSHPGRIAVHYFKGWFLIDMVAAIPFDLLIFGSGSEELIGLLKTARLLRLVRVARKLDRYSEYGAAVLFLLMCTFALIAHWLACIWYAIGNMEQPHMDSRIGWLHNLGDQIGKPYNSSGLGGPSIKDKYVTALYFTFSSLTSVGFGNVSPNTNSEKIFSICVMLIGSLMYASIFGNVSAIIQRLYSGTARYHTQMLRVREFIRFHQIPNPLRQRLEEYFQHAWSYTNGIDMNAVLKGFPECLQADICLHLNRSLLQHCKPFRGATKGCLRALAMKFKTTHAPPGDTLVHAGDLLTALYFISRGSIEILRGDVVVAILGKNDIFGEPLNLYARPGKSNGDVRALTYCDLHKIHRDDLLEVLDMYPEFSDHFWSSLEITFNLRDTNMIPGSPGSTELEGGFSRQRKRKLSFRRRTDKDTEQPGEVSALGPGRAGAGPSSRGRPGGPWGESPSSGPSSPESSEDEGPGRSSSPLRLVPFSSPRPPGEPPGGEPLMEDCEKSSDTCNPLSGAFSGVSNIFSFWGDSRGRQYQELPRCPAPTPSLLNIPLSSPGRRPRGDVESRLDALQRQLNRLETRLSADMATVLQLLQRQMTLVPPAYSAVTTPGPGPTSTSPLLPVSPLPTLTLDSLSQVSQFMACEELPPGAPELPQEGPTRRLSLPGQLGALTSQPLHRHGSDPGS", "assay": "primary screen, population patch clamp on CHO cells stably expressing hERG", "units": {"hERG current change (%, negative = inhibition) at 1uM": "%"}}
{"smiles": "CC(C)Cn1c(N)c(C(=O)COC(=O)c2ccc(Cl)cc2)c(=O)n(C)c1=O", "hERG current change (%, negative = inhibition) at 1uM": 8.51}
{"smiles": "CC12C(=O)N(c3ccccn3)C(=O)C1C1C=CC2C1", "note": "(stereo not drawn)", "hERG current change (%, negative = inhibition) at 1uM": 13.5}
{"smiles": "O=C(O)c1ccc2c(=O)[nH]c(CCl)nc2c1", "hERG current change (%, negative = inhibition) at 1uM": -5.77}
{"smiles": "CSc1nccc(-c2nn(-c3ccc(C)cc3)ccc2=O)n1", "hERG current change (%, negative = inhibition) at 1uM": 0.262}
{"smiles": "Cc1cc(C)n2nc(C(=O)OCC(=O)Nc3ccc4c(c3)OC(F)(F)O4)nc2n1", "hERG current change (%, negative = inhibition) at 1uM": -17.3}
{"smiles": "O=C(CNc1ccc(F)cc1F)NC(=O)NCc1ccco1", "hERG current change (%, negative = inhibition) at 1uM": 6.96}
{"smiles": "O=C(CCC(=O)N(CC(=O)NC1CCCCC1)Cc1ccc(F)cc1)Nc1nccs1", "hERG current change (%, negative = inhibition) at 1uM": 11}
{"smiles": "CC(=O)c1ccc(OCc2ccc(C(=O)c3ccccc3)cc2)cc1", "hERG current change (%, negative = inhibition) at 1uM": 12}
{"smiles": "CC(=O)c1cccc(NC(=O)c2sc(Cl)nc2C)c1", "hERG current change (%, negative = inhibition) at 1uM": 24.2}
{"smiles": "O=C(COC(=O)CSc1ccccc1)NCCNC(=O)COC(=O)CSc1ccccc1", "hERG current change (%, negative = inhibition) at 1uM": 6.27}
{"smiles": "COc1ccc(-c2nnc(SCCc3ccccc3)n2N)cc1", "hERG current change (%, negative = inhibition) at 1uM": 11.6}
{"smiles": "CCN(CC(=O)Nc1c(F)cccc1F)C(=O)CC1CCCC1", "hERG current change (%, negative = inhibition) at 1uM": 3.06}
{"smiles": "Cc1nc(C(C)N(C)Cc2nc(Cc3ccccc3F)no2)c(C)s1", "note": "(stereo not drawn)", "hERG current change (%, negative = inhibition) at 1uM": 4.48}
{"smiles": "CS(=O)(=O)Nc1ccccc1C(=O)NC1CC2CCC1C2", "note": "(stereo not drawn)", "hERG current change (%, negative = inhibition) at 1uM": 3.55}
{"smiles": "CC(=O)Oc1cccc(C(=O)Nc2ccccc2NC(=O)c2cccc(OC(C)=O)c2)c1", "hERG current change (%, negative = inhibition) at 1uM": 3.04}
{"smiles": "COCc1nc2ccccc2n1Cc1cccc(C)c1", "hERG current change (%, negative = inhibition) at 1uM": 11.6}
{"smiles": "CC12CCC(C)(c3nc4ccccc4nc31)C2(C)C", "hERG current change (%, negative = inhibition) at 1uM": 10.6}
{"smiles": "Cc1ccc(C(=O)N2CCN(CCNC(=O)C(=O)NC(C)C)CC2)cc1", "hERG current change (%, negative = inhibition) at 1uM": 7.95}
{"smiles": "COc1ccc(/C=N\\NC(=O)c2ccc(F)cc2)cc1COc1cc(F)ccc1[N+](=O)[O-]", "hERG current change (%, negative = inhibition) at 1uM": 12.9}
{"smiles": "O=C(CCc1nc(-c2ccccc2Cl)no1)NC1CCCC1", "hERG current change (%, negative = inhibition) at 1uM": 1.7}
{"smiles": "CNC(=S)N/N=C/c1cc(C)n(-c2ccc(Cl)c(Cl)c2)c1C", "hERG current change (%, negative = inhibition) at 1uM": 1.77}
{"smiles": "Cc1ccc2c(c1)C1CN(C)CCC1N2C(=S)Nc1ccc(Cl)cc1Cl", "note": "(stereo not drawn)", "hERG current change (%, negative = inhibition) at 1uM": -1.38}
{"smiles": "CC(C)CN1CCN(CC#Cc2ccccc2)CC1CCO", "note": "(stereo not drawn)", "hERG current change (%, negative = inhibition) at 1uM": 9.33}
{"smiles": "COc1ccc(OCc2nc3ccccc3[nH]2)cc1", "hERG current change (%, negative = inhibition) at 1uM": 12.6}
{"smiles": "CCCCn1c(N)c(N(CC(C)C)C(=O)c2cccc(-n3cnnn3)c2)c(=O)[nH]c1=O", "hERG current change (%, negative = inhibition) at 1uM": 9.97}
{"smiles": "CCOC(=O)N1CCN(C(=O)C(=O)Nc2sc3c(c2C#N)CC(C)(C)OC3)CC1", "hERG current change (%, negative = inhibition) at 1uM": 22.3}
{"smiles": "c1ccc(-c2csc3ncnc(NCCN4CCOCC4)c23)cc1", "hERG current change (%, negative = inhibition) at 1uM": 1.35}
{"smiles": "CCOc1cc(/C=C2\\C(=O)NC(=O)N(C)C2=O)cc([N+](=O)[O-])c1O", "hERG current change (%, negative = inhibition) at 1uM": 13.4}
{"smiles": "CN1C(=O)c2ccc(C(=O)NCc3ccccc3)cc2C1=O", "hERG current change (%, negative = inhibition) at 1uM": 9.41}
{"smiles": "Fc1cccc(/C=N/Nc2ncnc3nc[nH]c23)c1", "hERG current change (%, negative = inhibition) at 1uM": 14.4}
{"smiles": "COc1ccc(Cl)cc1S(=O)(=O)N1CCCC(C(=O)NCc2ccncc2)C1", "note": "(stereo not drawn)", "hERG current change (%, negative = inhibition) at 1uM": 2.57}
{"smiles": "Cc1ccc(S(=O)(=O)Nc2nnc(C(C)(C)C)s2)cc1", "hERG current change (%, negative = inhibition) at 1uM": 18.6}
{"smiles": "O=C(N/N=C/c1ccsc1)C1CC1", "hERG current change (%, negative = inhibition) at 1uM": 17}
{"smiles": "CCOC(=O)c1c(C)n(C)c2cc(Br)c(C(=O)OC)cc12", "hERG current change (%, negative = inhibition) at 1uM": -3.02}
{"smiles": "COc1ccc(C2(CNC(=O)c3cccc([N+](=O)[O-])c3)CCOCC2)cc1OC", "hERG current change (%, negative = inhibition) at 1uM": 5.05}
{"smiles": "CCOc1ccc(C(=O)N2CCN(C(=O)c3ccco3)CC2)cc1OCC", "hERG current change (%, negative = inhibition) at 1uM": 10.8}
{"smiles": "Nc1nc(SCC(=O)N2CCc3ccccc32)[nH]c(=O)c1-c1ccccc1", "hERG current change (%, negative = inhibition) at 1uM": -2.93}
{"smiles": "CC(=O)/C=C(\\C)Nc1ccc(-c2cnc(-c3ccccc3)o2)cc1", "hERG current change (%, negative = inhibition) at 1uM": 1.45}
{"smiles": "COC(=O)C1=C(Nc2ccccc2NC(=O)c2ccccc2C(=O)O)CSC1", "hERG current change (%, negative = inhibition) at 1uM": 11.5}
{"smiles": "O=C(Nc1ccccc1N1CCCCC1)C1=COCCO1", "hERG current change (%, negative = inhibition) at 1uM": 13.1}
{"smiles": "COc1ccc2cc(C(c3nnnn3C3CCCCC3)N3CCCCCC3)c3nnnn3c2c1", "note": "(stereo not drawn)", "hERG current change (%, negative = inhibition) at 1uM": 7.04}
{"smiles": "O=C(CSc1ncn[nH]1)OCN1C(=O)c2ccccc2C1=O", "hERG current change (%, negative = inhibition) at 1uM": 8.43}
{"smiles": "COc1ccccc1NC(=O)c1ccc(CN(c2cc(Cl)ccc2C)S(=O)(=O)c2ccccc2)cc1", "hERG current change (%, negative = inhibition) at 1uM": -2.89}
{"smiles": "CCOc1ccc(NC(=O)CN2CCN(CC(=O)Nc3cccc(F)c3)CC2)cc1", "hERG current change (%, negative = inhibition) at 1uM": -97.2}
{"smiles": "Cc1ccc2c(c1)N(C(=O)CCC(=O)NCc1cccc(Cl)c1)CC(C)O2", "note": "(stereo not drawn)", "hERG current change (%, negative = inhibition) at 1uM": 0.299}
{"smiles": "Cc1nc(C(=O)NCCO)cc2c1[nH]c1ccccc12", "hERG current change (%, negative = inhibition) at 1uM": 12.1}
{"smiles": "CCOC(=O)C1CCN(Cc2nnnn2CCc2ccccc2)CC1", "hERG current change (%, negative = inhibition) at 1uM": 4.65}
{"smiles": "CCNC(=S)NNC(=O)c1cc(-c2cccc(C)c2)nc2ccccc12", "hERG current change (%, negative = inhibition) at 1uM": 3.36}
{"smiles": "COc1cccc(-c2cccc(NC(=O)C3CCN(CC4CCOC4)CC3)c2)c1", "note": "(stereo not drawn)", "hERG current change (%, negative = inhibition) at 1uM": -0.517}
{"smiles": "CCN(CC)P(=O)(Nc1ccc(Br)cc1)c1c(C)nn(CCC#N)c1NC(=O)c1ccc(Cl)cc1", "note": "(stereo not drawn)", "hERG current change (%, negative = inhibition) at 1uM": 13.1}
{"smiles": "NC(=O)C1=C[C@H](c2ccc(C(F)(F)F)cc2)C[C@H](OCc2ccc(CO)cc2)O1", "hERG current change (%, negative = inhibition) at 1uM": 13.5}
{"smiles": "CN(C)C(CNC(=O)c1ccc(S(=O)(=O)N(C)C)cc1)Cc1ccccc1", "note": "(stereo not drawn)", "hERG current change (%, negative = inhibition) at 1uM": 9.81}
{"smiles": "Cc1ccc2c(c1)Sc1ccccc1CC2=O", "hERG current change (%, negative = inhibition) at 1uM": -4.5}
{"smiles": "Cc1ccc(COc2ccc(C)nc2[N+](=O)[O-])cc1", "hERG current change (%, negative = inhibition) at 1uM": 8.76}
{"smiles": "Cc1nc2ccccc2nc(C)c1=NO", "hERG current change (%, negative = inhibition) at 1uM": 5.73}
{"smiles": "CN(CCNC(=O)C1CCCN(c2ncnc3c2nc2n3CCCCC2)C1)Cc1ccccc1", "note": "(stereo not drawn)", "hERG current change (%, negative = inhibition) at 1uM": 6.83}
{"smiles": "O=C(NCCO)c1cc(-c2cc(C(=O)NCCO)c3ccccc3n2)nc2ccccc12", "hERG current change (%, negative = inhibition) at 1uM": 5.68}
